Hit rate of the full screen: of about 48,000 compounds, about 450 (0.94%) were called active. Roughly 19% stayed inconclusive and do not appear here. Calls come from the whole dose curve; as a rule, active = well fitted inhibition curve with a large enough effect; inconclusive = small, poorly fitted or top-dose-only effect; inactive = no such curve, though single readings can be large or run the other way. This is one part of the list.
Assay: Primary qHTS for Identification of Small Molecule Inhibitors of Huntingtin Promoter Activity; note: nearly all actives have a fitted effect of over 50% in size
Details: HEK293 HTT promoter firefly luciferase reporter (activity 0% = vehicle and -100% = no light), 24 h; series mostly up to 57.5 µM; activity change, negative = inhibition: at the top concentration
Text: Assay Provider: Russell L. Margolis M.D.
Department Neurology, Johns Hopkins University School of Medicine, Baltimore, MD
Huntington's Disease (HD) is a neurodegenerative disorder caused by a CAG repeat expansion in exon 1 of huntingtin (HTT). While there are currently no disease-modifying treatments for HD, recent efforts have focused on development of nucleotide-based therapeutics to lower HTT expression. As an alternative to siRNA or oligonucleotide methods, we hypothesized that suppression of HTT expression might be accomplished by small molecules that either (1) directly decrease HTT expression by suppressing HTT promoter activity or (2) indirectly decrease HTT expression by increasing the promoter activity of HTT-AS, the gene antisense to HTT that appears to inhibit expression of HTT.
We developed and employed a high throughput screen for modifiers of HTT and HTT-AS promoter activity using luminescent reporter HEK293 cells; of the 52,041 compounds tested, we identified 898 replicable hits. We used a rigorous stepwise approach to assess compound toxicity and the capacity of the compounds to specifically lower huntingtin protein in 5 different cell lines, including HEK293 cells, HD lymphoblastoid cells, mouse primary neurons, HD iPSCs differentiated into cortical-like neurons, and HD hESCs. We found no compounds which were able to lower huntingtin without lowering cell viability in all assays, though the potential efficacy of a few compounds at non-toxic doses could not be excluded.
SEQUENCE No. (1, 2, 3, etc.); […] (e.g., Cells, Incubation, Reagent, etc.); VALUE and DESCRIPTION.
1; Reagent; 4 uL; 2,500 Hek293 luciferase reporter cells per wells
3; Compound; 23 nL; Control inhibitor / compound library
5; Reagent; 2.5 uL; Firefly Luc reagent; Dual-Glo Luciferase Reporter Assay System (Promega)
6; Time; 10 min; room temperature incubation
7; Detection; Luminescence; FLuc
NOTES (numbers refer to sequence above)
1; High-throughput screening, measuring luminescence from a Hek293 luciferase reporter, was performed in 1,536 well white-walled tissue-culture treated plates. 2,500 cells were plated in 4 µL of Opti-MEM per well using a Multidrop Combi Reagent Dispenser (ThermoFisher).
2; Assay plates were cultured for 24 hours.
3; Control inhibitor (PTC124; final concentration of 50 uM) and compound library (at final concentrations of 460 nM - 57.5 uM) were added to the assay plate using the Kalypsis Pintool Robotic System equipped with 1536 pinheads.
4; Cells were then incubated for 24 hours at 37 degrees C prior to luminescence measurements.
5; In all cases, luminescence was measured using the Dual-Glo Luciferase Reporter Assay System (Promega) following the manufacturer's instructions.
6; Room temperature incubation.
7; Luminescence signal was obtained using the PerkinElmer ViewLux plate reader. Results were normalized to vehicle control (0% activity) and zero RLU (-100% activity).

Activity change, negative = inhibition, inactive:
CCOCCc1nn2c(=O)cc(COC(=O)C(CC)c3ccccc3)nc2s1 (stereo unspecified) -17.8%
Cc1cccc(C(=O)Nc2ccccc2SCc2cc(=O)c3cccc(C)c3[nH]2)c1 -7.27%
COc1ccc(NC(=O)CCn2cccn2)cc1OC -10.6%
CCOc1ccc(NC(=O)Cn2c(=O)n(CCC(=O)NCCc3ccccc3)c(=O)c3ccccc32)cc1 -1.6%
Cc1ccc2occ(-c3cc(-c4ccc(Cl)cc4)nc4c3COc3ccccc3-4)c(=O)c2c1 -19.2%
Cc1ccc(Cn2c(=O)n(Cc3ccccc3Cl)c(=O)c3ccccc32)cc1 -10.8%
CCCCc1nn2c(=O)cc(COC(=O)c3ccc(NC(=O)C4CCCCC4)cc3)nc2s1 11.2%
COc1cccc(C2CC(=O)Nc3c2c(=O)nc2c(C)cccn32)c1OC (stereo unspecified) -0.172%
COc1ccccc1CNC(=O)c1cnn2c(C)c(Cc3ccc(F)cc3)c(C)nc12 -2.77%
Cc1ccc(C(c2sc3nc(-c4ccco4)nn3c2O)N2CCN(Cc3ccccc3)CC2)cc1 (stereo unspecified) 0.851%
Cc1ccc(-c2nc3cc(Cl)ccc3o2)cc1NC(=O)COc1ccc(F)cc1 8.46%
CCOC(=O)c1ccc(NC(=O)CN2C(=O)COc3ccc(Cl)cc32)cc1 -16.4%
CCOc1ccccc1NC(=O)Cn1nnc(C(=O)Nc2ccc(C)c(C)c2)c1N -2.04%
Cc1c(C(=O)N2CCC(C)CC2)c(S(=O)(=O)N2CCN(c3ccc(Cl)cc3)CC2)c(C)n1C -21.1%
Cn1nccc1C(=O)NCc1ccc2c(c1)CCN2C(=O)c1ccccc1 -8.28%
COc1ccc(-c2nc3sc(CCNC(=O)C(=O)Nc4c(C)cccc4C)c(C)n3n2)cc1 -8.17%
CC1CCCN(CCCNC(=O)CN2C(=O)CSc3ccc(S(=O)(=O)N4CCOCC4)cc32)C1 (stereo unspecified) -11.3%
Cc1ccc(Cl)cc1N1CCN(S(=O)(=O)c2cc3[nH]c(=O)c(=O)[nH]c3cc2C)CC1 -8.72%
CCc1ccc(OCC(=O)N(Cc2ccc(OC)cc2)C2CCS(=O)(=O)C2)cc1 (stereo unspecified) -8.36%
O=C(CCn1c(=O)c2cccn2c2cccnc21)N1CCN(c2cccc(Cl)c2)CC1 -8.61%
COc1ccc(NC(=O)C2CCCN2S(=O)(=O)c2ccc3nc(-c4ccccc4)[nH]c3c2)cc1 (stereo unspecified) -4.92%
CN1C(=O)Cc2cc(S(=O)(=O)NCCc3ccccc3)ccc21 -0.991%
COCCCNC(=O)Cn1cnc2sc(C)c(S(=O)(=O)N3CCN(c4ccccc4OC)CC3)c2c1=O -14.2%
CCOC(=O)c1cc(-c2ccc(C)cc2)n(CCC(=O)Nc2ccc(OC)c(OC)c2)c1C -26.7%
CCN1CCN(C(=O)c2ccc3c(c2)N(Cc2cccc(F)c2)C(=O)c2ccccc2S3)CC1 -15.1%
CCCCCN1C(C(=O)c2ccccc2)=C(NC(=O)c2ccccc2Cl)c2ccccc2S1(=O)=O -8.35% [at 11.5 µM]
COc1ccc(CCNC(=O)c2ccc3c(c2)N(Cc2ccc(Cl)cc2)CCS3)c(OC)c1 -26.8%
COC(=O)c1c(NC(=O)COc2cc(C)ccc2C(C)C)sc2c1CCC(C)C2 (stereo unspecified) -7.46%
Cc1cc(C)c(S(=O)(=O)n2cnc(C)c2)c(C)c1 1.3%
CC(=O)NC(C)c1ccc(Oc2ccc(OC(C)C)cc2)cc1 (stereo unspecified) 11.5%
CCC(C)NC(=O)C1CCC(CNS(=O)(=O)c2ccc(Cl)cc2)CC1 (stereo unspecified) -17.6%
Cc1ccc(-c2ccc(=O)n(CC(=O)NCc3ccc(F)cc3)n2)cc1 -12.1%
COc1ccc(-c2nc3n(n2)C(=O)CC(c2ccc(Cl)cc2)S3)cc1 (stereo unspecified) -2.69%
Cc1ccc2nc3c(cc(C(=O)NC4CCCCC4)c(=N)n3C(C)C)c(=O)n2c1 -4.52%
CCOC(=O)c1ccc(NC(=O)CC2NCCNC2=O)cc1 (stereo unspecified) 15.1%
CCn1c2ccccc2c2cc(NC(=O)COc3ccc(C)c(C)c3)ccc21 0.422%
CCOC(=O)C1CCN(S(=O)(=O)c2ccc3c(c2)NC(=O)C(C)C(=O)N3)CC1 (stereo unspecified) -14.2%
N#Cc1cccc(NC(=O)C2CCN(c3ncccn3)CC2)c1 3.8%
CCOc1cc(C(=O)Nc2ccc(-c3nc4ncccc4o3)cc2C)cc(OCC)c1OCC -15.6%
CCS(=O)(=O)CCSc1nc(-c2ccc(Br)cc2)cc(-c2ccccc2)c1C#N -4.85%
CC1=C(C(=O)Nc2ccccc2C)C(c2cccnc2)n2nc(SCc3ccccc3F)nc2N1 (stereo unspecified) -7.35%
O=C(O)CCc1ccc(-c2ccccc2)n1CC(=O)Nc1ccccc1C(F)(F)F -10.6%
COc1ccc2c(c1)c1c(c(=O)n(-c3ccccc3C)c(=O)n1CC(=O)Nc1c(C)cccc1C)n2C -13.6%
Cc1ccccc1Nc1nn2c(=O)c3ccc(C(=O)N4CCCC(C)C4)cc3nc2s1 (stereo unspecified) -10.3%
O=c1c2[nH]c3ccccc3c2nc(SCc2cccc(F)c2)n1-c1ccccc1 -14.7%
Cc1ccc(NC(=O)CCC(=O)N2Cc3ccccc3Oc3ncccc32)cc1 -0.978%
COc1ccc(NC(=O)Cn2c(SCc3ccc(C)cc3)nc3cccnc32)c(OC)c1 -27.9%
O=C(CCc1ccccc1)NC1CC(=O)N(c2ccccc2)C1 (stereo unspecified) -18.5%
COc1cccc(OC)c1C(=O)Nc1ccc2c(c1)N(C(C)=O)CCC2 -18.9%
CCOc1ccc(CNS(=O)(=O)c2cc(-c3cc(C)no3)ccc2C)cc1OC -28.6%
CC(C)(C)c1ccc(C(=O)CCCN2CCC(OC(c3ccccc3)c3ccccc3)CC2)cc1 3.64%
COc1ccc(-c2cnc(C)o2)cc1S(=O)(=O)Nc1ccc(C)c(N(C)C)c1 -19.4%
Cn1c(=O)[nH]c2cc(-c3noc(-c4ccc(F)cc4)n3)ccc21 45.6%
CCn1c(=O)cc(SCC(=O)NCCc2ccc(OC)cc2OC)c2ccccc21 -11.5%
COCCCNC(=O)CSc1nc(-c2ccccc2)[nH]c1-c1ccc(C)cc1 -24.5%
CCc1ccc(-n2c(=O)c3c4c(sc3n(CC(=O)NC(C)CC)c2=O)CCCC4)cc1 (stereo unspecified) -9.02%
CCc1cnc2c(c1SCC(=O)Nc1ccc(C)cc1C)c(=O)n(C)c(=O)n2C -2.9%
CCCn1c(=O)c2sccc2n2c(CCCC(=O)Nc3cccc(CC)c3)nnc12 -15.6%
CCc1ccc(-c2nn(CC(=O)NC3CCCCC3)c3c2cnc2ccc(OC)cc23)cc1 14.5%
Cc1ccc(Cl)cc1NC(=O)C(=O)NCCc1sc(-c2ccc(F)cc2)nc1C -15.5%
COc1ccc(CC(=O)Nc2sc3c(c2C(=O)Nc2c(C)cccc2C)CCCCC3)cc1 -9.58%
